Reference: the supplement of paper PMC8285479
Structures can show the parent of a compound that is named as a salt. ± gives the standard deviation of the averaged measurements. The full ranking holds about 1,900 compounds; the median of “normalised cell viability (NPI; 0 = phenylarsine oxide control, 1 = DMSO control)” is about 1, and the lowest 2% start at about 0.039. The list shows a part of the results.

Test system: NCI-H1944
Assay: normalised cell viability (NPI; 0 = phenylarsine oxide control, 1 = DMSO control) (fraction of DMSO control); NCI-H1944 is a non-small cell lung cancer line; higher = more viable cells (less compound toxicity)
Details: 6 days
[1] = glucocorticoid arm: hydrocortisone 2.75 uM co-treatment, compound 1 µM
[2] = glucocorticoid arm: hydrocortisone 2.75 uM co-treatment, compound 5 µM
[3] = glucocorticoid arm: hydrocortisone 2.75 uM pre-treated 2 days and continued, compound 1 µM
[4] = glucocorticoid arm: hydrocortisone 2.75 uM pre-treated 2 days and continued, compound 5 µM
[5] = glucocorticoid arm: vehicle, compound 1 µM
[6] = glucocorticoid arm: vehicle, compound 5 µM
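Also: CTB read-out in 384-well plates, mean of triplicate wells, normalised per plate against 1 µM phenylarsine oxide and 0.1% DMSO, compounds added 24 h after seeding.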

Row | Structure (SMILES) | normalised cell viability [1] | normalised cell viability [2] | normalised cell viability [3] | normalised cell viability [4] | normalised cell viability [5] | normalised cell viability [6]
1 | O=C(O)CCCc1ccccc1 [Sodium Phenylbutyrate] | 0.9903 ± 0.0049 | 1.02 ± 0.011 | 1.007 ± 0.0058 | 1.01 ± 0.035 | 1.003 ± 0.0058 | 1.007 ± 0.0058
2 | O=C(O)CCCc1ccccc1 [Phenylbutyrate·Na] | 1.02 ± 0.021 | 1.04 ± 0.015 | 1.01 ± 0.011 | 1.04 ± 0.015 | 1.005 ± 0.0092 | 1.02 ± 0.015
3 | COc1cc(NS(C)(=O)=O)ccc1Nc1c2ccccc2nc2ccccc12 [Amsacrine hydrochloride] | 0.714 ± 0.011 | 0.143 ± 0.029 | 1.017 ± 0.0058 | 0.596 ± 0.12 | 0.427 ± 0.018 | 0.0435 ± 0.0037
4 | FC(F)c1nc2ccccc2n1-c1nc(N2CCOCC2)nc(N2CCOCC2)n1 | 0.649 ± 0.029 | 0.627 ± 0.013 | 0.603 ± 0.038 | 0.702 ± 0.054 | 0.691 ± 0.048 | 0.831 ± 0.028
5 | CN(C)c1ccc(/C=C2/C(=O)Nc3ccccc32)cc1 | 0.99733 ± 0.00058 | 1.01 ± 0.014 | 1.03 ± 0.021 | 1.03 ± 0.02 | 0.9937 ± 0.0035 | 0.9903 ± 0.0055
6 | Nc1nc2[nH]c(=O)cnc2c(=O)[nH]1 [Isoxanthopterin] | 0.995 ± 0.013 | 1.02 ± 0.029 | 0.996 ± 0.016 | 1.04 ± 0.066 | 0.9957 ± 0.0038 | 1 ± 0.015
7 | CC(C)(C)[C@]1(O)CCN2C[C@H]3c4ccccc4CCc4cccc(c43)[C@@H]2C1 (racemic) [(±)-Butaclamol hydrochloride] | 0.9893 ± 0.0032 | 0.932 ± 0.018 | 0.858 ± 0.22 | 0.999 ± 0.0014 | 0.968 ± 0.006 | 0.9723 ± 0.0031
8 | C=CC(=O)Nc1ccc2ncnc(Nc3cccc(Br)c3)c2c1 | 0.892 ± 0.019 | 0.8703 ± 0.0015 | 0.848 ± 0.0092 | 0.906 ± 0.038 | 0.826 ± 0.032 | 0.697 ± 0.021
9 | CN1CCN(CCOc2cc(OC3CCOCC3)c3c(Nc4c(Cl)ccc5c4OCO5)ncnc3c2)CC1 [Saracatinib (AZD0530)] | 0.809 ± 0.039 | 0.632 ± 0.02 | 0.78 ± 0.025 | 0.692 ± 0.043 | 0.8173 ± 0.0045 | 0.577 ± 0.027
10 | Nc1ccc(S(=O)(=O)Nc2ccnn2-c2ccccc2)cc1 [Sulfaphenazole] | 1.001 ± 0.0085 | 1.01 ± 0.01 | 0.877 ± 0.22 | 1 ± 0.015 | 0.9927 ± 0.007 | 0.9893 ± 0.006
11 | NCCNC(=O)c1ncsc1-c1cccc(F)c1 [Ro 41-1049 hydrochloride] | 1.01 ± 0.011 | 1.01 ± 0.011 | 1.01 ± 0.029 | 1.02 ± 0.016 | 0.996 ± 0.0035 | 0.996 ± 0.0069
12 | COc1ccccc1N1CCN(CCCCNS(=O)(=O)c2cccc3c(N(C)C)cccc23)CC1 | 0.99 ± 0.0027 | 0.794 ± 0.029 | 1 ± 0.023 | 0.9483 ± 0.0032 | 0.9867 ± 0.0045 | 0.99 ± 0.0061
13 | O=C(O)C1=CCCNC1 [Guvacine hydrochloride] | 1.006 ± 0.0075 | 1.013 ± 0.0058 | 1.01 ± 0.015 | 1.01 ± 0.023 | 0.991 ± 0.0017 | 0.992 ± 0.0066
14 | Nc1ncnc2c1nc(Sc1ccc(Cl)cc1)n2C1OC2COP(=O)(O)O[C@@H]2[C@@H]1O (stereo partly specified) [8-(4-Chlorophenylthio)-cAMP sodium] | 1 ± 0.013 | 1.01 ± 0.015 | 0.9937 ± 0.0055 | 1 ± 0.011 | 0.977 ± 0.01 | 0.9847 ± 0.0025
15 | O=C1CC2(CCCC2)CC(=O)N1CCCCN1CCN(c2ncccn2)CC1 [Buspirone hydrochloride] | 1 ± 0.013 | 1.02 ± 0.017 | 1.004 ± 0.01 | 1.03 ± 0.028 | 0.9927 ± 0.0067 | 0.9993 ± 0.0011
16 | Cc1cc(C)c(/C=C2\C(=O)Nc3ccccc32)[nH]1 | 1.06 ± 0.01 | 1.09 ± 0.015 | 1.07 ± 0.044 | 1.12 ± 0.017 | 1.03 | 1.03 ± 0.011
17 | Cc1cc(C)c(/C=C2\C(=O)Nc3ccccc32)[nH]1 [Semaxanib (SU5416)] | 1.09 ± 0.011 | 1.15 ± 0.046 | 1.09 ± 0.011 | 1.11 ± 0.017 | 1.023 ± 0.0058 | 1.027 ± 0.0058
18 | CC(C)c1cc(-c2ccc(F)c3ccccc23)nc(N)n1 | 0.9813 ± 0.0081 | 0.9787 ± 0.005 | 0.991 ± 0.018 | 0.993 ± 0.013 | 0.984 ± 0.025 | 1.001 ± 0.0079
19 | O=C(NOC[C@H](O)CO)c1ccc(F)c(F)c1Nc1ccc(I)cc1F | 0.621 ± 0.028 | 0.517 ± 0.034 | 0.711 ± 0.019 | 0.668 ± 0.047 | 0.418 ± 0.0087 | 0.259 ± 0.025
20 | CCn1ccnc1CC1COc2ccccc2O1 (stereo unspecified) [Imiloxan hydrochloride] | 1.013 ± 0.0058 | 1.01 ± 0.028 | 1.013 ± 0.0058 | 1.04 ± 0.069 | 0.996 ± 0.0035 | 1 ± 0.014
21 | COc1ccc(S(=O)(=O)N(C(C)=O)c2ccccc2/C=C/c2cc[n+]([O-])cc2)cc1 | 0.383 ± 0.019 | 0.242 ± 0.032 | 0.708 ± 0.057 | 0.515 ± 0.053 | 0.0884 ± 0.0054 | 0.0472 ± 0.00059
22 | Cc1c(F)cc(C(=O)NC2CC2)cc1-c1ccc(C(=O)NCC(C)(C)C)cn1 | 0.821 ± 0.012 | 0.801 ± 0.028 | 0.794 ± 0.033 | 0.884 ± 0.023 | 0.9853 ± 0.0067 | 0.993 ± 0.015
23 | C=CCN1CCc2c(cc(O)c(O)c2Br)[C@@H](c2ccccc2)C1 [R(+)-6-Bromo-APB hydrobromide] | 0.986 ± 0.017 | 1.01 | 0.989 ± 0.0095 | 1 ± 0.011 | 0.976 ± 0.011 | 0.9827 ± 0.0035
24 | O=C(/C=C/c1ccc(CN(CCO)CCc2c[nH]c3ccccc23)cc1)NO [LAQ824 (Dacinostat)] | 0.00706 ± 0.0016 | -0.000483 ± 0.0039 | 0.0151 ± 0.00085 | 0.00158 ± 0.00078 | 0.0063 ± 0.00096 | -0.000399 ± 0.00047
25 | Cc1cccc(C#Cc2ccccc2)n1 [6-Methyl-2-(phenylethynyl)pyridine hydrochloride] | 0.9927 ± 0.0061 | 0.995 ± 0.019 | 0.999 ± 0.011 | 1.04 ± 0.074 | 0.993 ± 0.0076 | 0.987 ± 0.011
26 | Cc1cccc(C#Cc2ccccc2)n1 | 1.05 ± 0.044 | 1.02 ± 0.018 | 1.033 ± 0.0058 | 1.023 ± 0.0058 | 1.003 ± 0.0058 | 0.998 ± 0.011
